IC50 is the fitted dose that halves viability relative to control wells, and lower means more sensitive; fits outside the tested doses are given as limits. The AUC spans the tested range (256-fold, ending at the top dose) of the same fit; the more sensitive the line, the further below 1. An inferred top dose comes from the curve model; the source does not state it.
Columns and labels:
Test in all cases: Viability of human cancer cell lines after 72 h of drug (GDSC screen)
GSK-1904529A = compound: CCc1cc(Nc2nccc(-c3c(-c4ccc(OC)c(C(=O)Nc5c(F)cccc5F)c4)nc4ccccn34)n2)c(OC)cc1N1CCC(N2CCN(S(C)(=O)=O)CC2)CC1 [GSK-1904529A]; conditions: top dose 1.024 µM; top dose inferred
Experimental: (§1)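 Human cancer cell lines in 384-well plates, medium with 10% serum, drug for 72 h over a 256-fold dose range (nine 2-fold or five 4-fold steps up to the top dose). Adherent lines were fixed and stained with the nucleic acid dye Syto60, suspension lines read with resazurin; signal relative to control wells, capped at 0 and 100%. One two-parameter sigmoid per drug and line, fitted in a mixed model over all curves with the slope shared within a line.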

Tipifarnib = compound: Cn1cncc1[C@@](N)(c1ccc(Cl)cc1)c1ccc2c(c1)c(-c1cccc(Cl)c1)cc(=O)n2C [Tipifarnib]; conditions: top dose 16 µM; top dose inferred
Experimental: as §1

PFI-1 = compound: COc1ccccc1S(=O)(=O)Nc1ccc2c(c1)CN(C)C(=O)N2 [PFI-1]; conditions: top dose 10 µM; top dose inferred
Experimental: as §1

NG-25 = compound: CCN1CCN(Cc2ccc(NC(=O)c3ccc(C)c(Oc4ccnc5[nH]ccc45)c3)cc2C(F)(F)F)CC1 [NG-25]; conditions: top dose 10.24 µM; top dose inferred
Experimental: as §1

BMS-509744 = compound: COc1cc(C)c(Sc2cnc(NC(=O)c3ccc(CNC(C)C(C)(C)C)cc3)s2)cc1C(=O)N1CCN(C(C)=O)CC1 [BMS-509744]; conditions: top dose 10.24 µM; top dose inferred
Experimental: as §1

Cell Line | AUC (GSK-1904529A) | IC50 (GSK-1904529A) [µM] | AUC (Tipifarnib) | IC50 (Tipifarnib) [µM] | AUC (PFI-1) | IC50 (PFI-1) [µM] | AUC (NG-25) | IC50 (NG-25) [µM] | AUC (BMS-509744) | IC50 (BMS-509744) [µM]
BL-41 (Burkitt lymphoma, suspension) | 0.989 | > 1.02 | 0.62 | 1.96 | 0.751 | 2.63 | 0.628 | 1.32 | 0.848 | 5.05
CA46 (Burkitt lymphoma, suspension) | 0.98 | > 1.02 | 0.621 | 2.21 | 0.719 | 2.75 | 0.475 | 0.544 | 0.878 | > 10.2
NCI-H1092 (small cell lung carcinoma, suspension) | 0.962 | > 1.02 | 0.906 | > 16 | 0.986 | > 10 | 0.928 | > 10.2 | 0.941 | > 10.2
RXF393 (kidney, adherent) | 0.977 | > 1.02 | 0.881 | > 16 | 0.965 | > 10 | 0.676 | 2.42 | 0.872 | > 10.2
NCI-H187 (small cell lung carcinoma, suspension) | 0.984 | > 1.02 | 0.975 | > 16 | 0.986 | > 10 | 0.961 | > 10.2 | 0.878 | > 10.2
COLO-668 (small cell lung carcinoma, adherent) | 0.988 | > 1.02 | 0.692 | 3.46 | 0.969 | > 10 | 0.899 | > 10.2 | 0.939 | > 10.2
NCI-H1694 (small cell lung carcinoma, suspension) | 0.989 | > 1.02 | 0.947 | > 16 | 0.928 | > 10 | 0.968 | > 10.2 | 0.938 | > 10.2
MZ1-PC (pancreas, adherent) | 0.978 | > 1.02 | 0.638 | 2.64 | 0.868 | > 10 | 0.625 | 1.54 | 0.754 | 4.21
NCI-H1876 (small cell lung carcinoma, adherent) | 0.985 | > 1.02 | 0.982 | > 16 | 0.938 | > 10 | 0.828 | 6.43 | 0.907 | > 10.2
LC4-1 (lymphoblastic leukaemia, suspension) | 0.951 | > 1.02 | 0.584 | 1.74 | 0.754 | 3.68 | 0.743 | 3.47 | 0.876 | > 10.2
A498 (kidney, adherent) | 0.964 | > 1.02 | 0.977 | > 16 | 0.976 | > 10 | 0.972 | > 10.2 | 0.975 | > 10.2
NCI-H1648 (lung adenocarcinoma, adherent) | 0.969 | > 1.02 | 0.619 | 2.17 | 0.976 | > 10 | 0.884 | > 10.2 | 0.827 | 6.8
CAS-1 (glioma, adherent) | 0.978 | > 1.02 | 0.798 | 11.1 | 0.87 | > 10 | 0.864 | > 10.2 | 0.96 | > 10.2
ES8 (Ewing sarcoma, adherent) | 0.982 | > 1.02 | 0.72 | 3.98 | 0.883 | 9.35 | 0.747 | 3.07 | 0.796 | 4.39
MSTO-211H (mesothelioma, adherent) | 0.991 | > 1.02 | 0.98 | > 16 | 0.958 | > 10 | 0.991 | > 10.2 | 0.981 | > 10.2
ES4 (Ewing sarcoma, adherent) | 0.981 | > 1.02 | 0.486 | 0.913 | 0.87 | > 10 | 0.78 | 4.87 | 0.813 | –
KE-37 (lymphoblastic leukaemia, suspension) | 0.993 | > 1.02 | 0.653 | 2.37 | 0.915 | 8.47 | 0.888 | 6.83 | 0.963 | > 10.2
MFH-ino (soft tissue, adherent) | 0.982 | > 1.02 | 0.345 | 0.344 | 0.897 | > 10 | 0.895 | > 10.2 | 0.735 | 3.43
COR-L95 (small cell lung carcinoma, adherent) | 0.986 | > 1.02 | 0.953 | > 16 | 0.965 | > 10 | 0.959 | > 10.2 | 0.894 | > 10.2
C2BBe1 (large intestine, adherent) | 0.986 | > 1.02 | 0.892 | > 16 | 0.928 | > 10 | 0.961 | > 10.2 | 0.958 | > 10.2
ST486 (Burkitt lymphoma, suspension) | 0.987 | > 1.02 | 0.542 | 1.28 | 0.803 | 4.32 | 0.601 | 1.17 | 0.911 | > 10.2
EB-3 (Burkitt lymphoma, suspension) | 0.976 | > 1.02 | 0.738 | 5.43 | 0.813 | 6.53 | 0.678 | 2.2 | 0.91 | > 10.2
JVM-2 (lymphoid neoplasm, suspension) | 0.981 | > 1.02 | 0.883 | > 16 | 0.699 | 2.6 | 0.78 | 5.27 | 0.946 | > 10.2
NCI-H23 (lung adenocarcinoma, adherent) | 0.988 | > 1.02 | 0.981 | > 16 | 0.874 | 9.57 | 0.937 | > 10.2 | 0.957 | > 10.2
NCI-H1869 (lung squamous cell carcinoma, adherent) | 0.973 | > 1.02 | 0.881 | > 16 | 0.9 | > 10 | 0.92 | > 10.2 | 0.982 | > 10.2

Cell Line | AUC (GSK-1904529A) | IC50 (GSK-1904529A) [µM] | AUC (Tipifarnib) | IC50 (Tipifarnib) [µM] | AUC (PFI-1) | IC50 (PFI-1) [µM] | AUC (NG-25) | IC50 (NG-25) [µM] | AUC (BMS-509744) | IC50 (BMS-509744) [µM]
NOS-1 (osteosarcoma, adherent) | 0.945 | > 1.02 | 0.631 | 2.51 | 0.876 | > 10 | 0.739 | 3.67 | 0.645 | 1.78
EW-11 (Ewing sarcoma, adherent) | 0.971 | > 1.02 | 0.884 | > 16 | 0.842 | > 10 | 0.821 | 8.3 | 0.85 | > 10.2
REH (B-cell leukaemia, suspension) | 0.986 | > 1.02 | 0.237 | 0.179 | 0.921 | > 10 | 0.769 | 3.72 | 0.877 | 9.54
JJN-3 (haematopoietic neoplasm, suspension) | 0.988 | > 1.02 | 0.783 | 5.49 | 0.808 | 4.07 | 0.873 | 6.91 | 0.947 | > 10.2
TE-8 (oesophagus, adherent) | 0.969 | > 1.02 | 0.479 | 0.871 | 0.894 | > 10 | 0.846 | 8.27 | 0.772 | 4.23
TE-9 (oesophagus, adherent) | 0.987 | > 1.02 | 0.777 | 6.67 | 0.902 | > 10 | 0.985 | > 10.2 | 0.918 | > 10.2
KALS-1 (glioma, adherent) | 0.976 | > 1.02 | 0.854 | > 16 | 0.861 | > 10 | 0.893 | > 10.2 | 0.848 | > 10.2
no-10 (glioma, adherent) | 0.929 | > 1.02 | 0.817 | 11.6 | 0.864 | > 10 | 0.968 | > 10.2 | 0.889 | > 10.2
MFM-223 (breast, adherent) | 0.989 | > 1.02 | 0.891 | > 16 | 0.943 | > 10 | 0.729 | 2.85 | 0.987 | > 10.2
SW872 (soft tissue, adherent) | 0.966 | > 1.02 | 0.534 | 1.23 | 0.711 | 2.3 | 0.948 | > 10.2 | 0.9 | > 10.2
HCC1187 (breast, suspension) | 0.988 | > 1.02 | 0.755 | 5.18 | 0.914 | > 10 | 0.91 | > 10.2 | 0.969 | > 10.2
EB2 (Burkitt lymphoma, suspension) | 0.99 | > 1.02 | 0.654 | 2.56 | 0.989 | > 10 | 0.409 | 0.369 | 0.966 | > 10.2
QIMR-WIL (acute myeloid leukaemia, suspension) | 0.986 | > 1.02 | 0.092 | < 0.0625 | 0.85 | 7.27 | 0.675 | 1.94 | 0.902 | > 10.2
ES5 (Ewing sarcoma, adherent) | 0.977 | > 1.02 | 0.7 | 4.01 | 0.732 | 3.2 | 0.767 | 4.37 | 0.915 | > 10.2
ES1 (Ewing sarcoma, adherent) | 0.986 | > 1.02 | 0.602 | 1.89 | 0.922 | > 10 | 0.847 | 7.36 | 0.86 | 8.36
SK-LMS-1 (soft tissue, adherent) | 0.987 | > 1.02 | 0.261 | 0.216 | 0.778 | 3.85 | 0.804 | 4.83 | 0.897 | > 10.2
LB996-RCC (kidney, adherent) | 0.931 | > 1.02 | 0.722 | 4.78 | 0.814 | 6.62 | 0.966 | > 10.2 | 0.9 | > 10.2
SNU-C1 (large intestine, suspension) | 0.974 | > 1.02 | 0.975 | > 16 | 0.871 | > 10 | 0.975 | > 10.2 | 0.898 | > 10.2
EoL-1-cell (haematopoietic neoplasm, suspension) | 0.985 | > 1.02 | 0.686 | 3.08 | 0.831 | 5.36 | 0.019 | < 0.04 | 0.912 | > 10.2
RPMI-8866 (chronic myeloid leukaemia, suspension) | 0.987 | > 1.02 | 0.92 | > 16 | 0.709 | 2.32 | 0.578 | 1.03 | 0.978 | > 10.2
LU-65 (large cell lung carcinoma, suspension) | 0.914 | > 1.02 | 0.858 | > 16 | 0.978 | > 10 | 0.879 | > 10.2 | 0.922 | > 10.2
COR-L279 (small cell lung carcinoma, suspension) | 0.974 | > 1.02 | 0.777 | 5.74 | 0.92 | > 10 | 0.881 | 8.68 | 0.931 | > 10.2
MZ7-mel (melanoma, adherent) | 0.977 | > 1.02 | 0.463 | 0.789 | 0.875 | > 10 | 0.781 | 4.42 | 0.868 | 9.87
HUTU-80 (digestive system, adherent) | 0.975 | > 1.02 | 0.303 | 0.313 | 0.947 | > 10 | 0.824 | 4.75 | 0.773 | 3.33
